The record followed here is the BET-seq Pho4 binding data (Le et al. 2018).

The list shows a part of the results. Values were computed here from the reads of four pooled replicates and scatter widely.

The experiment concerns the target T1, Pho4 (S. cerevisiae) (UniProt P07270).
T1 sequence: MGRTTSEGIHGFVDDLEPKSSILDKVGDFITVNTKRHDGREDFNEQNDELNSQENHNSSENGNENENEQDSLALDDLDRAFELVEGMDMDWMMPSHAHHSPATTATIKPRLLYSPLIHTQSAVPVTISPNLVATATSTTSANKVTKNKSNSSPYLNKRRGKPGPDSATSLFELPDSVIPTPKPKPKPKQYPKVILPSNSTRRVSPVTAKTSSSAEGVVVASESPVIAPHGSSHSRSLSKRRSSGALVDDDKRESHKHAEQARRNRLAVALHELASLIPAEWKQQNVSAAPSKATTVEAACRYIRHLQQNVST
Description: relative binding free energy (BET-seq); higher = weaker binding. The conditions noted are these: reference: library average.
On to ACTTTCACGTGAGGGG, for which the “relative binding free energy” value is 0.39 kcal/mol.

Consider CTGGCCACGTGTGTGT, for which the “relative binding free energy” value was -0.03 kcal/mol.

For GTGTTCACGTGAGGCT, the “relative binding free energy” value was 0.33 kcal/mol.

Take ACTTTCACGTGGGGTC: the “relative binding free energy” value worked out at 0.12 kcal/mol.

Take CTAAGCACGTGGGGAT: the “relative binding free energy” value is -0.24 kcal/mol.

Consider AAAGGCACGTGTAATT, for which the “relative binding free energy” value came out at 0 kcal/mol.

GGAAGCACGTGGGTTT: the “relative binding free energy” value was -0.17 kcal/mol.

As to GGGGGCACGTGTCTCG, the “relative binding free energy” value was -0.2 kcal/mol.

Turning to TTGGCCACGTGGGGTA, the “relative binding free energy” value was -0.23 kcal/mol.

AGTAACACGTGGCAGT: the “relative binding free energy” value was -0.06 kcal/mol.

Turning to TTGGTCACGTGGAGCC, the “relative binding free energy” value was found to be 0.14 kcal/mol.

Regarding GTTAACACGTGTGGCG, the “relative binding free energy” value was determined as 0.11 kcal/mol.

On to ATGGTCACGTGATTTC, for which the “relative binding free energy” value amounted to 0.11 kcal/mol.

In the case of TGTGGCACGTGTGTCG, the “relative binding free energy” value is -0.14 kcal/mol.

For GTGTCCACGTGGGGTG, the “relative binding free energy” value was -0.02 kcal/mol.

In the case of TCTGGCACGTGTGTGG, the “relative binding free energy” value is -0.09 kcal/mol.

For the sequence TGGCACACGTGGGGGA, the “relative binding free energy” value was -0.11 kcal/mol.

For the sequence GCTGGCACGTGTGGTA, the “relative binding free energy” value is -0.07 kcal/mol.

As for TTGCGCACGTGTGTAA, the “relative binding free energy” value is -0.05 kcal/mol.

With GTGTTCACGTGGCCGG, the “relative binding free energy” value is 0.16 kcal/mol.

In the case of TTATGCACGTGCGTTT, the “relative binding free energy” value is -0.11 kcal/mol.

In the case of ATTTTCACGTGCGGAT, the “relative binding free energy” value was found to be 0.29 kcal/mol.

As for ATGTGCACGTGGCTCA, the “relative binding free energy” value is -0.02 kcal/mol.

For the sequence TTGTACACGTGTTTAG, the “relative binding free energy” value was 0.17 kcal/mol.

On to ATGTTCACGTGCGCGT, for which the “relative binding free energy” value stood at 0.28 kcal/mol.

Turning to CTTCGCACGTGTTTGG, the “relative binding free energy” value was -0.1 kcal/mol.

Turning to GGACGCACGTGAAGTT, the “relative binding free energy” value was 0.25 kcal/mol.

In the case of AATTGCACGTGCTGTT, the “relative binding free energy” value is 0 kcal/mol.

On to GGGAACACGTGTCGTA, for which the “relative binding free energy” value is 0.19 kcal/mol.

Regarding GTTTGCACGTGTAGTA, the “relative binding free energy” value turned out to be 0.13 kcal/mol.

Turning to TGTGCCACGTGTTTTA, the “relative binding free energy” value is -0.04 kcal/mol.

In the case of TTTGCCACGTGAGCGG, the “relative binding free energy” value was 0.06 kcal/mol.

As to TTTAGCACGTGAATAT, the “relative binding free energy” value is 0.26 kcal/mol.

Take GGTGTCACGTGTCTGC: the “relative binding free energy” value is 0 kcal/mol.

Consider TAGTACACGTGTTTAT, for which the “relative binding free energy” value was -0.01 kcal/mol.

With ATCTACACGTGGGTGC, the “relative binding free energy” value came out at 0.13 kcal/mol.

Take TAATGCACGTGGTATG: the “relative binding free energy” value was -0.12 kcal/mol.

For GCGCTCACGTGGTGGT, the “relative binding free energy” value is 0.14 kcal/mol.

With GGCGCCACGTGGTGAG, the “relative binding free energy” value was -0.06 kcal/mol.

In the case of GTTGTCACGTGGTTTT, the “relative binding free energy” value worked out at 0.13 kcal/mol.

On to GTGGGCACGTGACGAT, for which the “relative binding free energy” value turned out to be 0.14 kcal/mol.

For the sequence GTTTGCACGTGGCCGT, the “relative binding free energy” value is -0.01 kcal/mol.

Take GGACTCACGTGTGTTG: the “relative binding free energy” value was found to be 0.32 kcal/mol.

As for TGGCACACGTGTAATT, the “relative binding free energy” value turned out to be 0.28 kcal/mol.

Consider TGATTCACGTGGGATA, for which the “relative binding free energy” value was 0.21 kcal/mol.

Turning to CTCGGCACGTGTAGTG, the “relative binding free energy” value is -0.05 kcal/mol.

On to GGGATCACGTGTATGT, for which the “relative binding free energy” value is 0.2 kcal/mol.

As for CTCTTCACGTGGGGTG, the “relative binding free energy” value came out at 0.14 kcal/mol.

Turning to CGCAGCACGTGGAAGG, the “relative binding free energy” value worked out at 0.08 kcal/mol.

Regarding TAGGACACGTGTAAGA, the “relative binding free energy” value amounted to 0.36 kcal/mol.

For GGTAGCACGTGGTATT, the “relative binding free energy” value was -0.15 kcal/mol.

Regarding TTATACACGTGTGAAA, the “relative binding free energy” value worked out at 0.03 kcal/mol.

Turning to ACTTGCACGTGGGTGA, the “relative binding free energy” value is -0.06 kcal/mol.

Take ATAAACACGTGTAGGT: the “relative binding free energy” value was found to be 0 kcal/mol.

On to GGATGCACGTGTTGTG, for which the “relative binding free energy” value came out at 0.02 kcal/mol.

TCGTGCACGTGCGGTT: the “relative binding free energy” value amounted to 0.05 kcal/mol.

Turning to CTGTGCACGTGGGTTC, the “relative binding free energy” value was -0.17 kcal/mol.

For GGGGGCACGTGATAGC, the “relative binding free energy” value worked out at 0.13 kcal/mol.

For ATTCACACGTGTGTGT, the “relative binding free energy” value is 0.07 kcal/mol.

Consider TTCTTCACGTGCGTTA, for which the “relative binding free energy” value came out at 0.15 kcal/mol.

TGTATCACGTGCTTAG: the “relative binding free energy” value was -0.08 kcal/mol.

For the sequence GTGGTCACGTGATCGA, the “relative binding free energy” value turned out to be 0.2 kcal/mol.

For GTGCTCACGTGGGAGT, the “relative binding free energy” value is 0.18 kcal/mol.

Turning to TGGAACACGTGATTTT, the “relative binding free energy” value was 0.22 kcal/mol.

Turning to ATTCTCACGTGTTTTT, the “relative binding free energy” value was 0.15 kcal/mol.

Take TGAATCACGTGAGGAA: the “relative binding free energy” value stood at 0.4 kcal/mol.

Take GTTTACACGTGTGAGT: the “relative binding free energy” value is 0.2 kcal/mol.

With AGTTGCACGTGTAGAA, the “relative binding free energy” value was -0.01 kcal/mol.

With CGTGACACGTGGGGGG, the “relative binding free energy” value was -0.19 kcal/mol.

Take AACGTCACGTGGTAGT: the “relative binding free energy” value was 0.22 kcal/mol.

For TGATTCACGTGATGTA, the “relative binding free energy” value amounted to 0.32 kcal/mol.

Take CCGTTCACGTGGTATT: the “relative binding free energy” value came to 0.29 kcal/mol.

Regarding TGGTTCACGTGGTTAG, the “relative binding free energy” value came to 0.26 kcal/mol.

Turning to CGTTGCACGTGTTAGG, the “relative binding free energy” value turned out to be 0.04 kcal/mol.

As for TTGGTCACGTGCTGTT, the “relative binding free energy” value was -0.04 kcal/mol.

On to AATGGCACGTGGTGCA, for which the “relative binding free energy” value is -0.16 kcal/mol.

Turning to GTTGTCACGTGATGAC, the “relative binding free energy” value worked out at 0.29 kcal/mol.

Regarding CGGCGCACGTGGGGGT, the “relative binding free energy” value was -0.18 kcal/mol.

Regarding CGCTGCACGTGGTTGG, the “relative binding free energy” value worked out at 0 kcal/mol.

For GGGCGCACGTGTTTGT, the “relative binding free energy” value was -0.04 kcal/mol.

As for CGGTTCACGTGCAGTG, the “relative binding free energy” value is 0.33 kcal/mol.

As to GATTGCACGTGGATTT, the “relative binding free energy” value is 0.07 kcal/mol.

With GATTGCACGTGGGTCG, the “relative binding free energy” value is -0.16 kcal/mol.

As for ATAGTCACGTGTATGT, the “relative binding free energy” value turned out to be 0.05 kcal/mol.

In the case of GTGATCACGTGAGATT, the “relative binding free energy” value came out at 0.35 kcal/mol.

For the sequence TGATTCACGTGGTGTT, the “relative binding free energy” value amounted to 0.2 kcal/mol.

For the sequence AGGGGCACGTGCACAG, the “relative binding free energy” value was -0.07 kcal/mol.

In the case of AAGGACACGTGAGGGA, the “relative binding free energy” value worked out at 0.29 kcal/mol.

As for TGGGTCACGTGGTCTT, the “relative binding free energy” value was 0.01 kcal/mol.

Turning to TGTCGCACGTGGACGG, the “relative binding free energy” value is 0.07 kcal/mol.

Turning to TGCTTCACGTGCTTTT, the “relative binding free energy” value turned out to be 0.24 kcal/mol.

For CATGACACGTGTGTGA, the “relative binding free energy” value stood at 0.14 kcal/mol.

As to AATTTCACGTGAATGT, the “relative binding free energy” value was determined as 0.34 kcal/mol.

Consider ATTACCACGTGTGTGA, for which the “relative binding free energy” value is -0.02 kcal/mol.

For ATATGCACGTGACGTG, the “relative binding free energy” value turned out to be 0.01 kcal/mol.

Take GTGAACACGTGGGTGG: the “relative binding free energy” value was -0.04 kcal/mol.

Turning to TTATTCACGTGTTACG, the “relative binding free energy” value was 0.24 kcal/mol.

With TTCATCACGTGTTCGG, the “relative binding free energy” value worked out at 0.07 kcal/mol.

Turning to TTGTGCACGTGCACGG, the “relative binding free energy” value was -0.17 kcal/mol.

Take TTGCGCACGTGATTGT: the “relative binding free energy” value was 0.05 kcal/mol.

As to TTGCGCACGTGAGTTG, the “relative binding free energy” value was 0.09 kcal/mol.

Turning to TTTGGCACGTGGTCTC, the “relative binding free energy” value was -0.22 kcal/mol.

Turning to GTGTGCACGTGCTAGT, the “relative binding free energy” value is -0.12 kcal/mol.

Regarding GGTGTCACGTGTGTGT, the “relative binding free energy” value was 0.14 kcal/mol.

For the sequence AATGTCACGTGCCGGT, the “relative binding free energy” value was determined as 0.17 kcal/mol.

As for TTTCGCACGTGTGATA, the “relative binding free energy” value was found to be 0 kcal/mol.

On to AGAAGCACGTGATGGG, for which the “relative binding free energy” value is 0.14 kcal/mol.

As to TGTGGCACGTGTGTAG, the “relative binding free energy” value was -0.04 kcal/mol.

In the case of AGGAGCACGTGTGGCG, the “relative binding free energy” value is -0.01 kcal/mol.

For the sequence ATATTCACGTGAAGGG, the “relative binding free energy” value turned out to be 0.42 kcal/mol.

Consider TATTTCACGTGGTAGA, for which the “relative binding free energy” value was 0.29 kcal/mol.

For GGCGTCACGTGTCGAG, the “relative binding free energy” value was 0.16 kcal/mol.

Turning to TGAAGCACGTGGTTAA, the “relative binding free energy” value was -0.14 kcal/mol.

On to ATAGTCACGTGAAATA, for which the “relative binding free energy” value was determined as 0.37 kcal/mol.

In the case of TGAAGCACGTGGTGCT, the “relative binding free energy” value was -0.1 kcal/mol.
